# Reference: PubChem BioAssay AID1508642 (National Center for Advancing Translational Sciences (NCATS), 2021)
# The whole screen tested about 43,000 compounds, of which about 200 (0.47%) were called active. Another 12% or so got no clear call; they are omitted. The call rests on the fitted dose curve; in most records, active means well fitted cell-killing curve with a large enough effect; inconclusive means small, poorly fitted or top-dose-only effect, or effect the other way; inactive means flat fitted curve, though single readings scatter. The list shows a part of the results.
# Test: Cell viability qHTS assay in S16 Pmp22-F2sN cells; further: nearly all actives have a fitted effect of over 65% in size
# Settings: S16 Pmp22-F2sN Schwann cells viability, CellTiter-Glo, 24 h; series mostly up to 57.5 µM; activity change, negative = cytotoxicity: at the top concentration
# In short: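 S16 Pmp22-F2sN Schwann cells (500-1,000/well) in phenol-red-free DMEM with 10% FBS received 23 nL compound by pin tool for 24 h at 37 °C. Viability was then read as CellTiter-Glo luminescence after 15 min at room temperature.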
# On the % scale 0 is the no-effect control and ±100 the full control effect.
row,SMILES,"activity change, negative = cytotoxicity"
1,Cc1ccc(NC(=O)CN2CCCN(Cc3cc(C)ccc3C)S2(=O)=O)c(Cl)c1,inactive: -18.9%
2,COc1cccc(N2CCN(C(=O)C3CCC(CNS(=O)(=O)c4ccc(Br)s4)CC3)CC2)c1 (stereo unspecified),inactive: -17.1%
3,COCCCNC(=O)Cn1c(=O)n(-c2ccc(C)cc2)c(=O)c2c1c1cc(C)ccc1n2C,inactive: -2.36%
4,CCS(=O)(=O)N1CC(=O)N(c2ccccc2C)C(C)(C(=O)NC2CCCCC2)C1 (stereo unspecified),inactive: -3.97%
5,CN(C)c1ccc(C(CNC(=O)COc2ccc(Cl)cc2)N2CCOCC2)cc1 (stereo unspecified),inactive: 11.4%
6,Cc1ccc(Cl)cc1N1CCN(C(=O)c2cn(C3CCCCC3)c(=O)c3c2c2ccccc2n3C)CC1,inactive: 1.22%
7,CC(C)(C)NS(=O)(=O)c1ccc2nc(NC(=O)c3cccnc3)sc2c1,inactive: -0.533%
8,COC(=O)CNC(=O)Nc1cc(C(=O)NCc2ccc(C)cc2)ccc1N1CCCC1,inactive: 1.74%
9,COc1cc(C2NC(=O)NC(C)=C2C(=O)Nc2cc(C)cc(C)c2)ccc1O (stereo unspecified),inactive: 11.4%
10,CCOC(=O)c1c(C)c(-c2ccccc2)n(CC(=O)Nc2cc(OC)cc(OC)c2)c1C,inactive: -21.7%
11,CC(C)(C)c1cc(C(C)(C)C)c2oc(=O)c(-c3nc4ccccc4[nH]3)cc2c1,inactive: 13.8%
12,O=C(CSc1nc2ccccc2c2nc(-c3ccccc3)nn12)Nc1ccc(Br)cc1,inactive: 3.98%
13,Cc1ccc(Cn2c(SCC(=O)NCc3ccc(Cl)cc3)nc3ccsc3c2=O)cc1,inactive: 21.7%
14,CCc1cc(C(=O)Nc2c(C)nn(Cc3ccc(C)cc3)c2C)no1,inactive: -9.57%
15,COC(=O)C1CCN(S(=O)(=O)c2cc3c4c(c2)C(C)C(=O)N4CCC3)CC1 (stereo unspecified),inactive: -4.29%
16,CC(=O)N1c2ccccc2CC1C(=O)N1CCN(c2ccc(F)cc2)CC1 (stereo unspecified),inactive: -0.955%
17,COc1ccc(C)cc1NC(=O)c1oc2ccc(S(=O)(=O)N(C)C3CCCCC3)cc2c1C,inactive: -0.756%
18,O=C(Nc1ccc(F)cc1F)c1ccc(CN2CC(=O)N3CCCCC3C2=O)cc1 (stereo unspecified),inactive: 2.78%
19,CCOc1ccccc1CNC(=O)Nc1cn(CC(C)C)c(=O)c2ccccc12,inactive: -11.5%
20,Cc1ccc(OCc2nc3ccccc3n2CC(C)C)cc1,inactive: -0.594%
21,COc1ccc(CCNC(=O)CCn2c(=O)c3cccn3c3ccc(F)cc32)c(OC)c1OC,inactive: 5.71%
22,COc1ccc(N(CC(=O)NC(C)c2ccccc2)S(=O)(=O)c2c(C)noc2C)cc1 (stereo unspecified),inactive: -0.536%
23,CCCN(C(=O)c1cc2c(s1)-c1ccccc1SC2)c1ccccc1F,inactive: -5.06%
24,CC1(c2ccc(Cl)cc2)CC(C)(C)N(C(=O)c2ccccc2)c2ccccc21 (stereo unspecified),inactive: -28.6%
25,CC(Oc1ccccc1)C(=O)Nc1nc2ccc(S(N)(=O)=O)cc2s1 (stereo unspecified),inactive: -15%
26,Cc1cc2c(cc1S(=O)(=O)NCc1ccc(N(C)C)cc1)OCC(=O)N2,inactive: 0.488%
